Test results reported in the supplement of paper PMC8728848.
Some of the results follow.

Key:
Test in all cases: glycan array binding signal (z-score within array); higher = stronger binding
Details in all cases: glycan notation: IUPAC condensed, linker removed
[1] = biological target: Man(a1-2)Man(a1-3)[Man(a1-2)Man(a1-6)]Man(a1-6)[Man(a1-2)Man(a1-2)Man(a1-3)]Man
Summary of the method: (§1)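 Columns mapping to the same glycan were averaged after glycan names were converted to IUPAC-condensed notation. The data come from 3228 arrays in the Consortium for Functional Glycomics database, limited to those with an available protein sequence. Binding is reported as a within-array Z-score averaged across arrays of one protein sequence and across linkers.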

[2] = biological target: Man(a1-2)Man(a1-3)[Man(a1-2)Man(a1-6)]Man(a1-6)[Man(a1-2)Man(a1-2)Man(a1-3)]Man(b1-4)GlcNAc(b1-4)GlcNAc
Summary of the method: as §1

[3] = biological target: Man(a1-2)Man(a1-3)[Man(a1-6)]Man(a1-6)[Man(a1-2)Man(a1-3)]Man(b1-4)GlcNAc(b1-4)GlcNAc
Summary of the method: as §1

[4] = biological target: Man(a1-2)Man(a1-6)[Man(a1-3)]Man(a1-6)[Man(a1-2)Man(a1-2)Man(a1-3)]Man
Summary of the method: as §1

[5] = biological target: Man(a1-2)Man(a1-6)[Man(a1-3)]Man(a1-6)[Man(a1-2)Man(a1-2)Man(a1-3)]Man(b1-4)GlcNAc(b1-4)GlcNAc
Summary of the method: as §1

Man(a1-3)[Man(a1-6)]Man = biological target: Man(a1-3)[Man(a1-6)]Man
Summary of the method: as §1

[6] = biological target: Man(a1-3)[Man(a1-6)]Man(a1-6)[Man(a1-2)Man(a1-3)]Man(b1-4)GlcNAc(b1-4)GlcNAc
Summary of the method: as §1

[7] = biological target: Man(a1-3)[Man(a1-6)]Man(a1-6)[Man(a1-3)]Man
Summary of the method: as §1

[8] = biological target: Man(a1-3)[Man(a1-6)]Man(a1-6)[Man(a1-3)]Man(b1-4)GlcNAc(b1-4)GlcNAc
Summary of the method: as §1

[9] = biological target: Man(a1-3)[Man(a1-6)]Man(b1-4)GlcNAc(b1-4)GlcNAc
Summary of the method: as §1

[10] = biological target: Man(a1-3)[Man(a1-6)]Man(b1-4)GlcNAc(b1-4)[Fuc(a1-6)]GlcNAc
Summary of the method: as §1

Man(a1-6)Man = biological target: Man(a1-6)Man
Summary of the method: as §1

Man(b1-4)GlcNAc = biological target: Man(b1-4)GlcNAc
Summary of the method: as §1

MurNAc(b1-4)GlcNAc = biological target: MurNAc(b1-4)GlcNAc
Summary of the method: as §1

Neu5Ac(a2-3)Gal = biological target: Neu5Ac(a2-3)Gal
Summary of the method: as §1

[11] = biological target: Neu5Ac(a2-3)Gal(b1-3)GalNAc
Summary of the method: as §1

[12] = biological target: Neu5Ac(a2-3)Gal(b1-3)GalNAc(b1-3)Gal(a1-4)Gal(b1-4)Glc
Summary of the method: as §1

[13] = biological target: Neu5Ac(a2-3)Gal(b1-3)GalNAc(b1-4)Gal(b1-4)Glc
Summary of the method: as §1

[14] = biological target: Neu5Ac(a2-3)Gal(b1-3)GalNAc(b1-4)[Neu5Ac(a2-3)]Gal(b1-4)Glc
Summary of the method: as §1

[15] = biological target: Neu5Ac(a2-3)Gal(b1-3)GalNAc(b1-4)[Neu5Ac(a2-8)Neu5Ac(a2-3)]Gal(b1-4)Glc
Summary of the method: as §1

[16] = biological target: Neu5Ac(a2-3)Gal(b1-3)GalNAc6S
Summary of the method: as §1

[17] = biological target: Neu5Ac(a2-3)Gal(b1-3)GlcNAc
Summary of the method: as §1

[18] = biological target: Neu5Ac(a2-3)Gal(b1-3)GlcNAc(b1-2)Man
Summary of the method: as §1

[19] = biological target: Neu5Ac(a2-3)Gal(b1-3)GlcNAc(b1-2)Man(a1-3)[GlcNAc(b1-4)][Neu5Ac(a2-3)Gal(b1-3)GlcNAc(b1-2)Man(a1-6)]Man(b1-4)GlcNAc(b1-4)GlcNAc
Summary of the method: as §1

[20] = biological target: Neu5Ac(a2-3)Gal(b1-3)GlcNAc(b1-2)Man(a1-3)[Neu5Ac(a2-3)Gal(b1-3)GlcNAc(b1-2)Man(a1-6)]Man(b1-4)GlcNAc(b1-4)GlcNAc
Summary of the method: as §1

[21] = biological target: Neu5Ac(a2-3)Gal(b1-3)GlcNAc(b1-2)[Neu5Ac(a2-3)Gal(b1-3)GlcNAc(b1-4)]Man(a1-6)[Neu5Ac(a2-3)Gal(b1-3)GlcNAc(b1-2)Man(a1-3)]Man(b1-4)GlcNAc(b1-4)GlcNAc
Summary of the method: as §1

[22] = biological target: Neu5Ac(a2-3)Gal(b1-3)GlcNAc(b1-3)Gal(b1-3)GlcNAc
Summary of the method: as §1

[23] = biological target: Neu5Ac(a2-3)Gal(b1-3)GlcNAc(b1-3)Gal(b1-4)GlcNAc
Summary of the method: as §1

[24] = biological target: Neu5Ac(a2-3)Gal(b1-3)GlcNAc(b1-3)GalNAc
Summary of the method: as §1

[25] = biological target: Neu5Ac(a2-3)Gal(b1-3)GlcNAc(b1-6)GalNAc
Summary of the method: as §1

[26] = biological target: Neu5Ac(a2-3)Gal(b1-3)GlcNAc6S
Summary of the method: as §1

[27] = biological target: Neu5Ac(a2-3)Gal(b1-3)[Fuc(a1-4)]GlcNAc
Summary of the method: as §1

[28] = biological target: Neu5Ac(a2-3)Gal(b1-3)[Fuc(a1-4)]GlcNAc(b1-3)Gal(b1-3)[Fuc(a1-4)]GlcNAc
Summary of the method: as §1

[29] = biological target: Neu5Ac(a2-3)Gal(b1-3)[Fuc(a1-4)]GlcNAc(b1-3)Gal(b1-4)[Fuc(a1-3)]GlcNAc
Summary of the method: as §1

[30] = biological target: Neu5Ac(a2-3)Gal(b1-3)[GlcNAc(b1-6)]GalNAc
Summary of the method: as §1

[31] = biological target: Neu5Ac(a2-3)Gal(b1-3)[Neu5Ac(a2-6)]GalNAc
Summary of the method: as §1

[32] = biological target: Neu5Ac(a2-3)Gal(b1-3)[Neu5Ac(a2-6)]GlcNAc(b1-3)[Fuc(a1-3)[Gal(b1-4)]GlcNAc(b1-6)]Gal(b1-4)Glc
Summary of the method: as §1

B1: Pwp5 ND (Candida glabrata) (protein)
chain: MGSSHHHHHHSSGLVPRGSHMASANPVPLTNVCYFPEEYPRQAGFRAITAGLASTILQGSVDELLNYSGLSSLTTQQTTTTTPNFQLPTLPLPTNVYGLTVVPLYLLVQLQGYFVPPVSGQYTFSLENTNDAAIIFFGNPSAFPCGDLSAWPQASADDITVTDGTFPSRTLFLKAGVAYPMRISYYNSLGSGNLAVSFTDPGGTKRTNWNGYIWRYNSCSTCTYT
glycan array binding signal (z-score) [1]: -0.565 | glycan array binding signal (z-score) [2]: -0.293 | glycan array binding signal (z-score) [3]: -0.37 | glycan array binding signal (z-score) [4]: -0.506 | glycan array binding signal (z-score) [5]: -0.285 | glycan array binding signal (z-score) (Man(a1-3)[Man(a1-6)]Man): -0.647 | glycan array binding signal (z-score) [6]: -0.441 | glycan array binding signal (z-score) [7]: 5.77 | glycan array binding signal (z-score) [8]: 0.955 | glycan array binding signal (z-score) [9]: 2.05 | glycan array binding signal (z-score) [10]: 0.238 | glycan array binding signal (z-score) (Man(a1-6)Man): -0.555 | glycan array binding signal (z-score) (Man(b1-4)GlcNAc): -0.41 | glycan array binding signal (z-score) (MurNAc(b1-4)GlcNAc): -0.122 | glycan array binding signal (z-score) (Neu5Ac(a2-3)Gal): -0.924 | glycan array binding signal (z-score) [11]: -0.159 | glycan array binding signal (z-score) [12]: -0.531 | glycan array binding signal (z-score) [13]: -0.411 | glycan array binding signal (z-score) [14]: -0.39 | glycan array binding signal (z-score) [15]: -0.368 | glycan array binding signal (z-score) [16]: -0.411 | glycan array binding signal (z-score) [17]: 0.287 | glycan array binding signal (z-score) [18]: 0.196 | glycan array binding signal (z-score) [19]: -0.174 | glycan array binding signal (z-score) [20]: 0.033 | glycan array binding signal (z-score) [21]: -0.267 | glycan array binding signal (z-score) [22]: -0.516 | glycan array binding signal (z-score) [23]: -0.486 | glycan array binding signal (z-score) [24]: 0.055 | glycan array binding signal (z-score) [25]: -0.595 | glycan array binding signal (z-score) [26]: -0.568 | glycan array binding signal (z-score) [27]: -0.21 | glycan array binding signal (z-score) [28]: 0.355 | glycan array binding signal (z-score) [29]: -0.551 | glycan array binding signal (z-score) [30]: -0.173 | glycan array binding signal (z-score) [31]: -0.293 | glycan array binding signal (z-score) [32]: -0.585
